Reference: PubChem BioAssay AID720542 (National Center for Advancing Translational Sciences (NCATS), 2013)
In all, about 360,000 compounds went through this assay and about 740 (0.21%) were called active. Inconclusive means that the source gave no clear call. Such entries were picked first, then a sample of the others. Calls come from the whole dose curve; as a rule, active = well fitted inhibition curve with a large enough effect; inconclusive = small, poorly fitted or top-dose-only effect; inactive = no such curve, though single readings can be large or run the other way. Potencies of inconclusive entries are left out as doubtful fits.
Note: nearly all actives have a fitted effect of over 45% in size.
Potency is the fitted concentration of half-maximal effect; tags give direction and shape of the fitted curve.

Each compound was assayed on Plasmodium falciparum AMA1 (3D7) - RON2 peptide interaction (assay: qHTS for Inhibitors of AMA1-RON; Towards Development of Antimalarial Drug Lead: Primary Screen). Conditions: AlphaScreen AMA1-biotinylated RON2 peptide binding; series mostly up to 58.2 µM.
In short: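 AMA1 (3D7) with his tag at 25 nM final met compounds first, then biotinylated RON2 peptide at 25 nM; detection used donor plus acceptor beads, 10 µg/mL apiece, read by AlphaScreen after 30 min at room temperature.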
For `Clc1ccc(CNc2nc(CN3CCOCC3)nc3scc(-c4ccccc4)c23)cc1`, the Potency was inconclusive [inhibitor, single point].
With `COc1ccc(N(C)S(=O)(=O)c2cccc(C(=O)N3CCN(Cc4ccc5c(c4)OCO5)CC3)c2)cc1` the Potency was “inactive”.
With `O=C(O)c1cc(N/N=C/c2c(O)ccc3ccccc23)ccc1Cl` the Potency was “inactive”.
`COC(=O)[C@@]12C[C@@H](CC(=O)NCc3ccc(OC)c(OC)c3)C(=O)N(Cc3ccc4c(c3)OCO4)C1=CCC(C)(C)C2` was tested, and the Potency was “inactive”.
`CCCn1c(C)cc(-c2csc(N)n2)c1C` was tested, and the Potency was inconclusive [inhibitor, single point].
With `O=C(Nc1nc2ccccc2n1Cc1ccccc1)c1ccco1` the Potency was “inactive”.
In the case of `Cc1ccc2c(c1)c1c(n2CC(O)CNC2CCCC2)CCCC1` (stereo not given), the Potency is reported as inconclusive [inhibitor, single point].
For `CCN(CC)CCC(c1ccc(N(C)C)cc1)c1c(O)cc(OC)cc1OC` (stereo not given), the Potency was inconclusive [inhibitor, single point].
`CC1(c2ccc(OC(F)F)cc2)NC(=O)N(CC(=O)Nc2ccc(N3CCCCC3)cc2)C1=O` (stereo not given) was tested, and the Potency was inconclusive [inhibitor, partial curve].
In the case of `C=CCOc1cccc(/C=N/NC(=O)CN(c2cc(Cl)ccc2OC)S(=O)(=O)c2ccc(C)c([N+](=O)[O-])c2)c1`, the Potency is reported as inconclusive [inhibitor, partial curve].
In the case of `O=C(CN1CCCC1)Nc1ccccc1Sc1ccc(Cl)cc1`, the Potency is reported as inconclusive [inhibitor, partial curve].
`O=C(Nc1ccc(N2CCOCC2)cc1)c1ccc(-c2ccccc2[N+](=O)[O-])o1` was tested, and the Potency was inconclusive [inhibitor, partial curve].
`CC1CCc2[nH]c3ccc(C(=O)N(C)CC(=O)Nc4ccccc4Br)cc3c2C1` (stereo not given) was tested, and the Potency was inconclusive [inhibitor, single point].
For `O=S(=O)(c1ccc2c(c1)OCCO2)N1CCC(c2nc3ccc(Cl)cc3[nH]2)CC1`, the Potency was “inactive”.
For `CC(=O)N1CCN(c2ccc(NC(=O)c3cccc(F)c3)cc2)CC1`, the Potency was “inactive”.
For `COP(=O)(OC)C(Nc1ccc(C)cc1)c1ccc(Br)cc1` (stereo not given), the Potency was “inactive”.
`O=C(COC(=O)C1CCN(c2ccc(C(F)(F)F)cn2)CC1)Nc1ccc(F)cc1[N+](=O)[O-]` was tested, and the Potency was inconclusive [inhibitor, full curve].
In the case of `O=C(CN1CCN(Cc2ccc(Cl)cc2)CC1)N/N=C/C=C/c1ccccc1[N+](=O)[O-]`, the Potency is reported as “inactive”.
In the case of `CCc1nnc(NC(=O)CCc2nc(C3=CCN(C)CC3)no2)s1`, the Potency is reported as inconclusive [inhibitor, partial curve].
With `COc1ccc(OC)c(Nc2nc(N(C)c3ccccc3)nc(N)c2[N+](=O)[O-])c1` the Potency was inconclusive [inhibitor, partial curve].
In the case of `O=C(Nc1ccccc1)NC1CCN(Cc2nnnn2C2CCCCC2)CC1`, the Potency is reported as inconclusive [inhibitor, partial curve].
With `CCOc1ccccc1NC(=O)COc1coc(CN2CCc3ccccc32)cc1=O` the Potency was inconclusive [inhibitor, partial curve].
For `Cc1csc(=O)n1CC(=O)OCC(=O)c1ccc(Br)cc1`, the Potency was “inactive”.
With `CN(C)Cc1ccccc1Sc1ccc2c(c1)CCCC2` the Potency was inconclusive [inhibitor, partial curve].
For `O=C(O)c1cncc(C#Cc2ccccc2)c1`, the Potency was inconclusive [inhibitor, single point].
With `NNC(=O)c1nc[nH]c1C(=O)Nc1ccccn1` the Potency was inconclusive [inhibitor, full curve].
`O=C(NCc1ccco1)c1ccc(S(=O)(=O)c2cccc(S(=O)(=O)N3CCOCC3)c2)cc1` was tested, and the Potency was “inactive”.
In the case of `COc1ccccc1N1CCN(CC(=O)Nc2cccc(F)c2)CC1`, the Potency is reported as “inactive”.
For `NNC(=O)c1ccc(COc2ccc3ccccc3c2)cc1`, the Potency was “inactive”.
With `CC1=NN(Cc2ccccc2)C(=O)/C1=C\c1ccc(N(C)C)cc1` the Potency was inconclusive [inhibitor, partial curve].
With `Cn1nnc2cc(NC(=O)Nc3ccccc3F)ccc21` the Potency was “inactive”.
For `O=C(NNC(=O)c1ccc(Cl)c(Cl)c1)c1cccnc1`, the Potency was “inactive”.
`Cc1ccc(Nc2nc(C)nc3c2oc2ccccc23)cc1` was tested, and the Potency was “inactive”.
For `COc1ccccc1OCCCCN1CCN(C(c2ccccc2)c2ccccc2)CC1`, the Potency was inconclusive [inhibitor, partial curve].
In the case of `Cc1cc(C)c(S(=O)(=O)N2CCN(c3ccc([N+](=O)[O-])c(NCC4CCCO4)c3)CC2)c(C)c1` (stereo not given), the Potency is reported as inconclusive [inhibitor, single point].
`COc1ccc(S(=O)(=O)N2CCc3ccccc32)cc1C(=O)OCc1c(C)noc1C` was tested, and the Potency was inconclusive [inhibitor, single point].
For `Cc1cc(C(=O)OC(C)C(=O)N2CCc3ccccc32)ccc1[N+](=O)[O-]` (stereo not given), the Potency was inconclusive [inhibitor, partial curve, poor fit].
In the case of `Cc1sc(NC(=O)c2ccco2)c(C(c2cccnc2)N2CCN(c3ccc(F)cc3)CC2)c1C` (stereo not given), the Potency is reported as inconclusive [inhibitor, single point].
For `CN(C)c1ccc(CN(CC2CCCO2)C(=O)c2cc3ccccc3o2)cc1` (stereo not given), the Potency was active: 15.8 µM.
In the case of `COc1ccc(/C=N/N2CCN(Cc3ccc(C)cc3)CC2)cc1Br`, the Potency is reported as inconclusive [inhibitor, single point].
`CCN(Cc1ccccc1)Cc1ccc(OCc2ccccc2)cc1` was tested, and the Potency was inconclusive [inhibitor, full curve].
In the case of `CCCC(C(=O)Nc1cccc(S(=O)(=O)N2CCCC2)c1)c1ccccc1` (stereo not given), the Potency is reported as “inactive”.
In the case of `O=[N+]([O-])c1cccc(-c2ccc(C(=S)N3CCN(c4ccccc4)CC3)o2)c1`, the Potency is reported as inconclusive [inhibitor, single point].
In the case of `COc1ccccc1CNC(=O)C(CCSC)NC(=O)c1cccc(S(=O)(=O)N2CCOCC2)c1` (stereo not given), the Potency is reported as “inactive”.
In the case of `O=S(=O)(c1cccc(C(F)(F)F)c1)N(CCCN1CCOCC1)Cc1cccs1`, the Potency is reported as inconclusive [inhibitor, partial curve].
In the case of `C=C(C)C(O)Cc1c(OC)ccc(C(=O)/C=C/c2ccc(O)cc2)c1O` (stereo not given), the Potency is reported as “inactive”.
With `O=C(NC1CCOC1=O)c1ccccc1` (stereo not given) the Potency was inconclusive [inhibitor, partial curve].
With `CC1CCC/C(=N/Nc2ccc([N+](=O)[O-])cc2[N+](=O)[O-])C1` (stereo not given) the Potency was inconclusive [inhibitor, single point].
`COc1cccc(N2C(=O)NC(=O)/C(=C\c3ccc([N+](=O)[O-])s3)C2=O)c1` was tested, and the Potency was inconclusive [inhibitor, single point].
`CCCCNC(=O)C1C(c2ccccc2)=Nc2ccccc2N1C(=O)c1ccc(C)cc1` (stereo not given) was tested, and the Potency was “inactive”.
For `C(=N\N1CCN(Cc2ccccc2)CC1)/c1cccnc1`, the Potency was inconclusive [inhibitor, partial curve, poor fit].
In the case of `CCOC(=O)C(O)(c1ccc(NC(=O)NC2CCCCC2)cc1)C(F)(F)F` (stereo not given), the Potency is reported as “inactive”.
In the case of `Cn1ccc2c(-c3ccc(CO)cc3)cc3c(c21)C1CCC3C1` (stereo not given), the Potency is reported as inconclusive [inhibitor, partial curve, poor fit].
`O=[N+]([O-])c1nn(-c2ccc3c(c2)OCCO3)n(O)c1=NC1CCCCC1` was tested, and the Potency was inconclusive [inhibitor, partial curve].
With `CN(CC(=O)NCc1ccccc1)Cc1cccc(F)c1` the Potency was inconclusive [inhibitor, partial curve].
For `COc1ccccc1-c1nc(C#N)c(N2CCN(c3ccccc3)CC2)o1`, the Potency was inconclusive [inhibitor, partial curve].
For `Cc1ccc(/C=N/Nc2cc(C)nc(NCc3ccccc3)n2)cc1`, the Potency was “inactive”.
In the case of `O=C(CCCOc1ccccc1)Nc1ccc(S(=O)(=O)N2CCOCC2)cc1`, the Potency is reported as “inactive”.
With `CC1CCN(c2oc(-c3ccccc3F)nc2C#N)CC1` the Potency was inconclusive [inhibitor, single point].
With `COc1ccc(Cl)cc1C(=O)NNC(=O)c1cccs1` the Potency was “inactive”.
In the case of `CCOC(=O)c1c(C)[nH]c(N=Nc2cccc(OC)c2)c1C`, the Potency is reported as inconclusive [inhibitor, partial curve].
`Cc1cc(-n2c(=O)c(C#N)cc3c(=O)n4ccccc4nc32)no1` was tested, and the Potency was inconclusive [inhibitor, partial curve].
In the case of `O=C(c1ccccc1)C1CCN(c2ncccc2[N+](=O)[O-])CC1`, the Potency is reported as inconclusive [inhibitor, single point].
For `COCCN1CCN(C(=O)C2CCC(=O)N(CCc3cccc(F)c3)C2)CC1` (stereo not given), the Potency was “inactive”.
For `O=C(CC1SC(=O)N(c2ccccc2)C1=O)Nc1ccc(Cl)cc1` (stereo not given), the Potency was “inactive”.
In the case of `CC1CCCCC1NC(=O)COC(=O)c1c2c(nc3ccccc13)/C(=C/c1ccco1)CC2` (stereo not given), the Potency is reported as inconclusive [inhibitor, full curve, poor fit].
With `CCOc1ccc(N=C2NC(=O)S/C2=C\c2ccc(N(C)C)cc2)cc1` the Potency was inconclusive [inhibitor, partial curve].
`NC(=O)NC(=O)C(Nc1ccc(N2CCCCC2)cc1)c1ccccc1` (stereo not given) was tested, and the Potency was inconclusive [inhibitor, partial curve].
`COC(=O)c1nn2c(C(F)(F)F)cc(-c3ccc(Br)o3)nc2c1Br` was tested, and the Potency was inconclusive [inhibitor, partial curve].
For `CCn1c(=O)cc(SCC(=O)N2CCN(Cc3ccc4c(c3)OCO4)CC2)c2ccccc21`, the Potency was inconclusive [inhibitor, single point].
